# The whole screen tested about 310,000 compounds, of which about 2,200 (0.71%) showed an effect of 50% or more. Effects have a minus sign here. Some of the results follow.
# Molecular target: human ether-à-go-go-related gene (hERG) potassium channel (human, UniProt Q12809)
# Assay: primary screen, population patch clamp on CHO cells stably expressing hERG
# human ether-à-go-go-related gene (hERG) potassium channel, sequence (Q12809 whole entry, looked up): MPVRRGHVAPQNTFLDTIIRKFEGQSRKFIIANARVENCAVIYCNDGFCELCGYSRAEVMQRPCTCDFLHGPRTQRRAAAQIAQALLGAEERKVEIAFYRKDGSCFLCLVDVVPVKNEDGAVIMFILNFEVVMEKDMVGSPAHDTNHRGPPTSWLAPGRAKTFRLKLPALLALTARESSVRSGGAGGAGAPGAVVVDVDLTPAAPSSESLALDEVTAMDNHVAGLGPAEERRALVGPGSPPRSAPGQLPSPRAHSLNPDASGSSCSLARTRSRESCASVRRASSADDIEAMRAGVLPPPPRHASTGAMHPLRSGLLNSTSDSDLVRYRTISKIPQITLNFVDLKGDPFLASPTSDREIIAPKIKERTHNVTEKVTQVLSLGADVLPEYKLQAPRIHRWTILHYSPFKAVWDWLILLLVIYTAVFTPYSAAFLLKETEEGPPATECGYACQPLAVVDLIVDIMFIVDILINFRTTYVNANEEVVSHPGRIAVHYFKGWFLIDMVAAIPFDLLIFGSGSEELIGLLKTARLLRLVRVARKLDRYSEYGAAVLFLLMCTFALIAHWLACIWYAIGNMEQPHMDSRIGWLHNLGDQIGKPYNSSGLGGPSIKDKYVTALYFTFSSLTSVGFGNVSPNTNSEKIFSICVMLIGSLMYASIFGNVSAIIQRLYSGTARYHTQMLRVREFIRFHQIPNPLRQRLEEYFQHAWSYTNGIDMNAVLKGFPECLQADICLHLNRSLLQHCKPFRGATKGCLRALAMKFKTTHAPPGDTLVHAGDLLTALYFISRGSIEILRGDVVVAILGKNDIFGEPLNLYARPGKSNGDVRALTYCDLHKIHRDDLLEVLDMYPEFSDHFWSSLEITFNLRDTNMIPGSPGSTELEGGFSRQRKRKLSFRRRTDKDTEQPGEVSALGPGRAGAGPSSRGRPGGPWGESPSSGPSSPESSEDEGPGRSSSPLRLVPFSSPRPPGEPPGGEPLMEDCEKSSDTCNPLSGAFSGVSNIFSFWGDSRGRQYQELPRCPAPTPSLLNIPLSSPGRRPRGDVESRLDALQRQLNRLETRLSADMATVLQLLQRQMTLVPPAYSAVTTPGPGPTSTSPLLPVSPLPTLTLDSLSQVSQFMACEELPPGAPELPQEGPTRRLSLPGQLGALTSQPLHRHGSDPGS
row,Structure (SMILES),"hERG current change (%, negative = inhibition) at 1uM [%]"
1,COc1cccc(C(c2c(N)n(C)c(=O)n(C)c2=O)C(C)[N+](=O)[O-])c1 (stereo not shown),12.8
2,CCN(CC)S(=O)(=O)c1ccc(N2CCCC2)c(NC(=O)c2ccccc2OC)c1,-28.6
3,O=C(Cn1c(=O)n(-c2ccc(F)cc2)c(=O)c2sccc21)N1CCCC1,1.4
4,Cc1cccc(C)c1NC(=O)N1CC(C)OC(C)C1 (stereo not shown),20.8
5,CCCn1c(=O)c2ccccc2n2c(SCc3nnc(-c4ccccc4Br)o3)nnc12,7.61
6,Cc1c(C)n(C)c2ccc(C(=O)NCCc3ccco3)cc12,8.95
7,Cc1cc2cc(CN(CCN(C)C)C(=S)NCc3ccco3)c(=O)[nH]c2cc1C,-5.57
8,Cc1ccc(C(=O)NC(=S)N(C)Cc2ccccc2)cc1,12.1
9,O=C(Cc1ccccc1)NCC1CCCO1 (stereo not shown),8.6
10,COc1ccccc1Cn1c(=S)[nH]c2cc(C(=O)NCCN(C)C)ccc2c1=O,10
11,O=C(CC1C(=O)NCCN1Cc1cccc(Oc2ccccc2)c1)NCCc1ccccn1 (stereo not shown),9.09
12,COC(=O)CC1=NN(c2nc3ccccc3s2)C(=O)/C1=C/N(C)C,-0.621
13,COc1ccc(N/C=C/C(=C(C#N)C#N)N(C)C)cc1,21.6
14,Oc1ccc(/C=C/c2cnccn2)cc1,5.1
15,Cc1ccc(C(=O)N2CCC(C(N)=O)CC2)cc1C,7.93
16,CC(C)(NC(=O)N1CCOCC1)c1cccc(C(C)(C)NC(=O)N2CCOCC2)c1,14.4
17,CCOC(=O)c1[nH]ncc1CN1CCCC(C(=O)c2cccc(OC(C)C)c2)C1 (stereo not shown),-22
18,N#C/C(=C\c1ccc(OC(=O)c2ccc(Cl)s2)cc1)c1nc2ccccc2[nH]1,7.15
19,CC(C)(C)c1nnc(NC(=O)C2CCN(c3ncccn3)CC2)s1,4.7
20,COc1cccc(CC2(CO)CCN(S(=O)(=O)c3ccc(OC)cc3OC)CC2)c1,8.91
21,O=C(CSc1nnnn1C1CC1)Nc1ccc(S(=O)(=O)N2CCOCC2)cc1,13.1
22,O=C(Nc1ccc(S(=O)(=O)N2CCCCC2)cc1)c1cnccn1,11.5

row,Structure (SMILES),"hERG current change (%, negative = inhibition) at 1uM [%]"
1,CC(C)(C)NC(=O)NC(=O)CSc1nnc2ccccn12,3.36
2,CCOc1ccc(C(CC(=O)O)NC(=O)c2ccco2)cc1OC (stereo not shown),5.24
3,O=C(/C=C/c1ccccc1)N1CCN(C(=O)c2ccco2)CC1,-13.1
4,O=C(O)Cc1sc(NCCc2ccccc2)nc1-c1ccc(F)cc1,9.04
5,CC(OC(=O)CNC(=O)c1ccc(Cl)cc1)C(=O)NC1CCCCC1C (stereo not shown),11.8
6,Cc1ccc(NC(=O)CCn2cnc3ccccc3c2=O)cc1,14.8
7,Cc1cccc(N2CCN(C(=O)COCc3cc(-c4ccc5c(c4)OCO5)on3)CC2)c1C,8.3
8,Cc1onc(-c2ccccc2Cl)c1C(=O)Nc1ccc(N2CCOCC2)cc1,4.17
9,Cc1cc(C)c2cc(CN(Cc3nnnn3Cc3ccc(F)cc3)C3CCCC3)c(=O)[nH]c2c1,-2.73
10,CN1CCN(C(=O)CCN2C(=O)/C(=C\c3ccc(Cl)cc3Cl)SC2=S)CC1,13.9
11,O/N=C/c1cn(-c2ccccc2)nc1-c1ccccc1,9.64
12,CCOC(=O)c1ccccc1NC(=O)CCNC(=O)Cn1cnc2ccccc2c1=O,11.8
13,C=CCNC(=S)NNC(=O)CCC(O)COCCC(C)C (stereo not shown),6.06
14,O=c1[nH]c(/C=C/c2ccccc2Cl)nc2ccccc12,4.63
15,O=C(NCCOc1cccnc1)C1CCC(=O)N(Cc2ccccc2F)C1 (stereo not shown),10.6
16,COc1ccc(NC(=O)C(C)N2c3cccc4cccc(c34)S2(=O)=O)cc1 (stereo not shown),-7.5
17,O=C1/C(=C\c2ccc(Cl)cc2Cl)N2CCC1CC2,14.5
18,CN(Cc1ccco1)S(=O)(=O)c1cc(F)ccc1CN1C(=O)c2cccnc2C1=O,15.9
19,CCOC(=O)C1CCCN(CC(O)COc2ccc(OC)cc2C(C)(C)C)C1 (stereo not shown),-22.1
20,CCCCNC(=O)Nc1nnc(-c2ccccc2)o1,-2.58
21,C[C@H](NC(=O)C1CCN(S(=O)(=O)c2ccccc2)CC1)C(=O)NCc1ccccn1,26.3
22,CCN1C(=O)[C@@H]2Cc3c([nH]c4ccccc34)C(c3cc(OC)c(OC)c(OC)c3)N2C1=S (stereo partly shown),-8.76

row,Structure (SMILES),"hERG current change (%, negative = inhibition) at 1uM [%]"
1,COc1ccccc1Oc1c(C)oc2c(CN3CCOCC3)c(O)ccc2c1=O,12.6
2,CCOc1ccc2[nH]c3c(NCCO)ncnc3c2c1,14.6
3,CCc1c(C(=O)N/N=C/c2ccsc2)csc1C,-0.292
4,O=C(O)C1CCCCC1C(=O)NCc1ccc2c(c1)OCO2 (stereo not shown),7.56
5,CCc1nnc(NC(=O)CCc2ccccc2OC)s1,10
6,O=C(CSc1nnc(-c2ccc(F)cc2)n1-c1ccccc1)NCCN1C(=O)CSC1=O,9.97
7,CCOC(=O)c1ccc(-c2ccc(/C=C(\C#N)C(=O)NCc3cccs3)o2)cc1,28.4
8,CCOc1ccc2[nH]c(=O)c(CN(Cc3ccccc3OC)C(=O)c3ccccc3)cc2c1,-0.785
9,COc1ccc(Cl)cc1NC(=O)CN(C(=O)c1ccco1)C1CCCCC1,15.8
10,O=[N+]([O-])c1ccc(N2CCN(CC3CCCCC3)CC2)cc1,-23
11,CN1CCN(CC/C=C2/c3ccccc3Sc3ccc(S(=O)(=O)N(C)C)cc32)CC1,-14.7
12,CSc1ccc2c(c1)C(N1CCN(C)CC1)Cc1ccccc1S2.O=C([O-])/C=C\C(=O)[O-] (stereo not shown),5.38
13,Cc1ccc(CC(=O)NCCN2CCOCC2)cc1,16.8
14,CCOC(=O)c1ccc(NC(=O)N2CCc3ccccc3C2)cc1,-1.49
15,c1ccc(-c2cn3nc4c(nc3n2)CCCC4)cc1,3.18
16,CCOC(=O)CCSc1nc(C)c2cc(OC)ccc2n1,4.02
17,COc1ccc(-c2cc(=O)oc3cc(OC(C)C(=O)NCc4ccccn4)ccc23)cc1 (stereo not shown),-17.2
18,COc1ccc(C(C)(C)C)cc1S(=O)(=O)N1CCN(C)CC1,3.43
19,CCOC(=O)c1cnc2c(C)cccc2c1NCCCN1CCOCC1,-37.3
20,O=C(N/N=C/c1ccc(N2CCOCC2)o1)c1cccc(F)c1,7.72
21,COc1ccc(OC)c2c(C)cc(C)nc12,7.2
22,Cc1c(Cl)cccc1N=c1c([N+](=O)[O-])nn(-c2ccccc2)n1O,-5.38

row,Structure (SMILES),"hERG current change (%, negative = inhibition) at 1uM [%]"
1,CC(C)(C)OC(=O)CNC(=O)c1nc[nH]c1C(=O)NCC(=O)OC(C)(C)C,9.52
2,O=C1CN(C(=O)CNC(=O)c2ccccc2Cl)c2ccccc2N1,6.34
3,O=C(CC1(O)C(=O)Nc2ccc(Br)cc21)c1ccc2c(c1)OCO2 (stereo not shown),12.4
4,O=C(O/N=C1\CCCc2ccccc21)c1cccs1,17.4
5,Br.CC1(C(=O)CSc2n[nH]c(-c3ccccc3Cl)n2)CCC(=O)O1 (stereo not shown),8.24
6,COc1cc(CN(C)C(C)C(=O)Nc2ccc([N+](=O)[O-])cc2Cl)ccc1OC(F)F (stereo not shown),11.1
7,Cc1cc(N/N=C2/CCCc3ccccc32)nc2ccccc12,19
8,Cc1cc2n(n1)SC(Nc1ccccc1)N2 (stereo not shown),7.56
9,CC1(C)Cc2cccc(OCC(=O)N3CCN(c4ccc(F)cc4)CC3)c2O1,-16.2
10,COc1ccc(S(=O)(=O)N2CCOCC2)cc1N(C)S(=O)(=O)c1ccc(C)cc1,3.84
11,CCC(=O)Nc1cc(-c2nn(C)c(=O)c3ccccc23)ccc1N1CCCCC1,3.86
12,Cc1cc(N/C=C(\C#N)S(=O)(=O)c2ccccc2Cl)nc(C)n1,14.1
13,CCn1c(SCC(=O)Nc2nc3ccccc3s2)nnc1-c1ccc(Br)cc1,4.76
14,COC(=O)/C=C/c1cc(F)ccc1S(=O)(=O)NC(C)(C)C,7.33
15,Cc1cc(=O)[nH]c(N/N=C/c2c(C)nn(-c3ccc(F)cc3)c2Cl)n1,-3.02
16,O=C(O)/C=C/c1cn(Cc2ccccc2)nc1-c1cccnc1,14.1
17,CCN1CCc2c(OCC(=O)Nc3cccc(C)c3C)cccc2C1=O,-5.24
18,O=C(Nc1ccc(C(=O)O)cc1)/C(=C\c1ccc([N+](=O)[O-])cc1)NC(=O)c1ccc(Br)cc1,6.96
19,Cc1ccc(C(=O)N[C@@H](C)CN2C3=NC[C@H](Cc4ccccc4)N3C[C@H]2Cc2ccc(O)cc2)cc1Br,-68.1
20,COc1cc(-c2nnc(Cn3cc(C(F)(F)F)ccc3=O)o2)cc(OC)c1OC,12.8
21,CC1CN(S(=O)(=O)c2cccc(C(=O)NCCCn3ccnc3)c2)CC(C)O1.Cl (stereo not shown),9.1
22,CCn1nnc(-c2ccccc2NC(=O)C(F)(F)F)n1,-1.33
